In PMC4336329 (PLoS ONE, 2015):
Among all 310,000 compounds or so, about 2,200 (0.71%) showed an effect of 50% or more. Effects have a minus sign here. This is one part of the list.

The compounds below were run against human ether-à-go-go-related gene (hERG) potassium channel (human, UniProt Q12809) (assay: primary screen, population patch clamp on CHO cells stably expressing hERG).
Chain of human ether-à-go-go-related gene (hERG) potassium channel (Q12809 whole entry, looked up): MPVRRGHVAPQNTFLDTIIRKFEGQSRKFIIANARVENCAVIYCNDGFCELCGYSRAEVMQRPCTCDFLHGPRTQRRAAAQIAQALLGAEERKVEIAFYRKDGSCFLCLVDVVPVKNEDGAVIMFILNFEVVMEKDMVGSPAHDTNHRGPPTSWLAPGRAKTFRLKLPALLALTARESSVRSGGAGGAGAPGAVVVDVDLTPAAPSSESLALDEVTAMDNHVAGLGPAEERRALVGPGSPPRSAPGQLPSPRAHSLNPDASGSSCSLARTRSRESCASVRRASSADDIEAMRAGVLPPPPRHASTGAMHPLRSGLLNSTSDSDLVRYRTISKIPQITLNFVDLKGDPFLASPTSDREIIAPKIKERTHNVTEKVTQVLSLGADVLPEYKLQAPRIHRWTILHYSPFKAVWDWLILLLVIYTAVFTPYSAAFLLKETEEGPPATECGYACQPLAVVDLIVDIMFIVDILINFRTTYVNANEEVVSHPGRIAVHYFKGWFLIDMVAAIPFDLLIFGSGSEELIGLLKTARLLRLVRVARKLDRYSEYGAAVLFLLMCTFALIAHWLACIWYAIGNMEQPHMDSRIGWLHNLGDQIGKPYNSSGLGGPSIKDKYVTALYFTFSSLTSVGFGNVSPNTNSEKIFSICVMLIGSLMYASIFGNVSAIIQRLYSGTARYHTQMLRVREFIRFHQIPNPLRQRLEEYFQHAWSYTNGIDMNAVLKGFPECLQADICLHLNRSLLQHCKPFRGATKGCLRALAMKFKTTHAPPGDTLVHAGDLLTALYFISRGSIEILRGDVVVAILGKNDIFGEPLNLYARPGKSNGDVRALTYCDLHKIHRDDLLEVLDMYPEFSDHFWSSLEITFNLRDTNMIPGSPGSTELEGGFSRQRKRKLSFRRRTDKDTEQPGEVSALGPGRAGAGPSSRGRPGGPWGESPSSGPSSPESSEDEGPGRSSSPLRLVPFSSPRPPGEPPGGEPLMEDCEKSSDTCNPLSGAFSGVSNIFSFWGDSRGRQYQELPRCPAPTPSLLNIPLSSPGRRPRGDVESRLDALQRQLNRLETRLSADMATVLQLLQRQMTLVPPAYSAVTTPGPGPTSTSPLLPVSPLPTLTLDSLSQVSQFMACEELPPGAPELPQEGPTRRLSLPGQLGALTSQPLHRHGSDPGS
COc1ccc(CNc2nc3c(c(=O)[nH]c(=O)n3C)n2Cc2ccccc2C)cc1 was tested, and the “hERG current change (%, negative = inhibition) at 1uM” value was 13.4%.
With CCOC(=O)C(=O)Nc1nc(-c2ccccc2)c(-c2ccccc2)o1 the “hERG current change (%, negative = inhibition) at 1uM” value was 1.95%.
With CC(C)(C)c1nnc(NC(=O)C2CC(=O)N(CCc3ccc(F)cc3)C2)s1 (stereo not drawn) the “hERG current change (%, negative = inhibition) at 1uM” value was 12.2%.
O=C(Cc1ccccc1)NNC(=O)Nc1ccccc1 was tested, and the “hERG current change (%, negative = inhibition) at 1uM” value was 11.1%.
For CCCn1nc(NC(=O)c2ccco2)c2cc3ccc(C)cc3nc21, the “hERG current change (%, negative = inhibition) at 1uM” value was 0.437%.
With COc1ccc2cc(-c3[nH]ncc3CN3CCCCO3)ccc2c1 the “hERG current change (%, negative = inhibition) at 1uM” value was 1.71%.
With CCc1ccc2oc(=O)cc(CN3CCN(c4ccc(F)cc4)CC3)c2c1 the “hERG current change (%, negative = inhibition) at 1uM” value was 8.35%.
In the case of Cc1cnc(C(=O)OCC(=O)NCCCc2ccccc2)cn1, the “hERG current change (%, negative = inhibition) at 1uM” value was 13.7%.
With COc1ccc(CN(Cc2ccccn2)S(=O)(=O)c2ccc(-n3cnnn3)c(OC)c2)cc1 the “hERG current change (%, negative = inhibition) at 1uM” value was -4.46%.
O=C(O)C1C2CCC(C2)C1C(=O)Nc1ccccc1 (stereo not drawn) was tested, and the “hERG current change (%, negative = inhibition) at 1uM” value was 3.71%.
In the case of Cc1ccc(C2=NN(C(=O)CCC(=O)O)C(c3ccc4c(c3)OCO4)C2)cc1 (stereo not drawn), the “hERG current change (%, negative = inhibition) at 1uM” value was 6.31%.
For COc1cccc(/C=N/NC(=O)CCn2c3ccccc3c3ccccc32)c1, the “hERG current change (%, negative = inhibition) at 1uM” value was -7.19%.
CC12CCC(C(=O)N(CCCN3CCN(Cc4ccccc4)CC3)C1=O)C2(C)C.Cl (stereo not drawn) was tested, and the “hERG current change (%, negative = inhibition) at 1uM” value was 2.96%.
In the case of COc1ccc(/C=C2\CCCC(C(=O)C(F)(F)F)=C2O)cc1OC, the “hERG current change (%, negative = inhibition) at 1uM” value was 5.34%.
In the case of COc1ccc(C(=O)Nc2ccc(C(=O)N3CCC(C)CC3)cc2)cc1OC, the “hERG current change (%, negative = inhibition) at 1uM” value was 13.8%.
CCCCCC(=O)N1CCN(S(=O)(=O)c2ccc3c(c2)OCCO3)CC1 was tested, and the “hERG current change (%, negative = inhibition) at 1uM” value was -31.2%.
With O=C(/C=C/c1ccco1)N1CCN(S(=O)(=O)c2cccs2)CC1 the “hERG current change (%, negative = inhibition) at 1uM” value was 9.56%.
For N#C/C(=N\Nc1ccc([N+](=O)[O-])cc1)C(=N)N1CCOCC1, the “hERG current change (%, negative = inhibition) at 1uM” value was -12.3%.
In the case of CN(C)c1ccc(C(=O)NCC(c2cccs2)N2CCOCC2)cc1[N+](=O)[O-] (stereo not drawn), the “hERG current change (%, negative = inhibition) at 1uM” value was 3.86%.
O=C(c1ccc(Br)cc1)N1CCC(C(=O)N2CCN(Cc3ccccc3)CC2)CC1 was tested, and the “hERG current change (%, negative = inhibition) at 1uM” value was -15.8%.
Fc1cccc(Cc2noc(CN3CCCCC3CCc3ccccn3)n2)c1 (stereo not drawn) was tested, and the “hERG current change (%, negative = inhibition) at 1uM” value was 13.2%.
O=C(CN1CCOCC1)Nc1ncc(Cc2cccc(Cl)c2)s1 was tested, and the “hERG current change (%, negative = inhibition) at 1uM” value was -7.1%.
For CC1(C)CC(NC(=O)c2ccccc2Cl)CC(C)(C)N1.Cl, the “hERG current change (%, negative = inhibition) at 1uM” value was 12.9%.
For CCC(C(=O)Nc1cc(Cl)c(OC)cc1OC)c1ccccc1 (stereo not drawn), the “hERG current change (%, negative = inhibition) at 1uM” value was -2.68%.
With O=C(CCCN1C(=O)c2cccnc2Oc2ccc(Cl)cc21)N1CCCCC1 the “hERG current change (%, negative = inhibition) at 1uM” value was -0.408%.
For C=CCSc1nc2c(cnn2-c2ccccc2)c(=O)n1N, the “hERG current change (%, negative = inhibition) at 1uM” value was 8.15%.
For Fc1cccc(-n2c(-c3cccs3)nc3nc4ccccc4nc32)c1, the “hERG current change (%, negative = inhibition) at 1uM” value was 8.2%.
For COc1cccc(-c2ccc(SCC(=O)N3CCOCC3)nn2)c1, the “hERG current change (%, negative = inhibition) at 1uM” value was 8.5%.
For Cc1ccccc1C(=O)N1CCC(C(=O)NC2CCCC2)CC1, the “hERG current change (%, negative = inhibition) at 1uM” value was 13.7%.
With CC(=O)c1ccc(S(=O)(=O)N2CCN(CC(=O)NC(=O)NC3CCCCC3)CC2)cc1 the “hERG current change (%, negative = inhibition) at 1uM” value was 7.69%.
For COc1ccc(OC)c(-c2csc(NC(=O)COC(=O)C3CCC3)n2)c1, the “hERG current change (%, negative = inhibition) at 1uM” value was 1.09%.
For Cc1nc(C(=O)NC2CC2)sc1C1(C)CC(c2cccc([N+](=O)[O-])c2)=NO1 (stereo not drawn), the “hERG current change (%, negative = inhibition) at 1uM” value was -0.499%.
For COc1ccc(S(=O)(=O)N2CCOC2CNC(=O)C(=O)NCCc2ccc(OC)c(OC)c2)cc1C (stereo not drawn), the “hERG current change (%, negative = inhibition) at 1uM” value was 12.4%.
For CCc1cccc(NC(=O)Cn2c(-c3ccccc3)cc(C(C)=O)c2C)c1, the “hERG current change (%, negative = inhibition) at 1uM” value was 11.4%.
For CCCn1c(C(=O)c2ccccc2)nc2ccccc21, the “hERG current change (%, negative = inhibition) at 1uM” value was -1.32%.
For Cc1cc(C)n2nc(C(=O)OCC(=O)c3cc(C)n(C)c3C)nc2n1, the “hERG current change (%, negative = inhibition) at 1uM” value was 12.7%.
Cc1ccc(NC(=O)c2ccc(Cl)cc2[N+](=O)[O-])nc1 was tested, and the “hERG current change (%, negative = inhibition) at 1uM” value was 10.5%.
With O=C(/C=C/c1ccc(Cl)c([N+](=O)[O-])c1)Nc1cccc(NC(=O)c2ccco2)c1 the “hERG current change (%, negative = inhibition) at 1uM” value was 4.12%.
CSc1ccccc1NC(=O)CN1CC(C)OC(C)C1 (stereo not drawn) was tested, and the “hERG current change (%, negative = inhibition) at 1uM” value was 9.79%.
For Cc1cc(O)c(C(C[N+](=O)[O-])c2ccc(Cl)cc2Cl)c(=O)o1 (stereo not drawn), the “hERG current change (%, negative = inhibition) at 1uM” value was 4.33%.
In the case of COc1ccc(NC(=O)c2c(NC(=O)CCC(=O)O)sc3c2CCCCC3)cc1, the “hERG current change (%, negative = inhibition) at 1uM” value was 15.9%.
For Cc1nn(C)c(C)c1NS(=O)(=O)c1cccc(Br)c1, the “hERG current change (%, negative = inhibition) at 1uM” value was 12.5%.
With CCOC(=O)C1=C(C)OC(N)=C(C#N)C12C(=O)N(C)c1ccccc12 (stereo not drawn) the “hERG current change (%, negative = inhibition) at 1uM” value was 16.9%.
With Cc1ccc(C(CCNC(C)c2cccs2)c2ccco2)cc1 (stereo not drawn) the “hERG current change (%, negative = inhibition) at 1uM” value was -6.57%.
With O=C(N/N=C/c1c(Cl)cccc1Cl)c1ccc(F)cc1 the “hERG current change (%, negative = inhibition) at 1uM” value was -9.15%.
For CC1(C)CC(=O)C=C(NNC(=O)c2ccccc2)C1, the “hERG current change (%, negative = inhibition) at 1uM” value was 15.6%.
In the case of Cc1cccc(OCc2nnc(NC(=O)Cc3cccs3)s2)c1, the “hERG current change (%, negative = inhibition) at 1uM” value was 9.25%.
CCC/C=N/NC(=O)c1ccc(F)cc1 was tested, and the “hERG current change (%, negative = inhibition) at 1uM” value was 8.66%.
CCCC(C)(COC(N)=O)COC(=O)NC(C)C (stereo not drawn) was tested, and the “hERG current change (%, negative = inhibition) at 1uM” value was -6.24%.
In the case of Cc1ccc(S(=O)(=O)NCCc2ccccc2)cc1, the “hERG current change (%, negative = inhibition) at 1uM” value was 9.1%.
For CC(NC(=O)CC1SC(N)=NC1=O)c1ccccc1 (stereo not drawn), the “hERG current change (%, negative = inhibition) at 1uM” value was 0.396%.
For CCn1nc(C)c(CNC(=O)C2CCC(=O)N(CCc3ccc(OC)cc3)C2)c1C (stereo not drawn), the “hERG current change (%, negative = inhibition) at 1uM” value was 10.7%.
In the case of CNC(=O)CSc1nnc(-c2ccc(S(=O)(=O)N3CCCC3)cc2)n1-c1cccc(C)c1C, the “hERG current change (%, negative = inhibition) at 1uM” value was 7.16%.
Cc1cc(=O)cc(C)n1-c1ccc(O)cc1 was tested, and the “hERG current change (%, negative = inhibition) at 1uM” value was 8.96%.
With CN(C)S(=O)(=O)c1cccc(COC(=O)c2cc([N+](=O)[O-])ccc2N2CCOCC2)c1 the “hERG current change (%, negative = inhibition) at 1uM” value was 9.2%.
In the case of CC(=O)c1sc(NC(=O)CCN2C(=O)c3ccccc3C2=O)nc1C, the “hERG current change (%, negative = inhibition) at 1uM” value was 16.6%.
For Cc1cc(N/C=C/C(=O)c2ccc(Br)cc2)no1, the “hERG current change (%, negative = inhibition) at 1uM” value was 0.889%.
